In the supplement of paper PMC3334620:
The full ranking holds about 33,000 sequences; the median of “E-score (-0.5 to 0.5)” is about -0.013, and the highest 2% start at about 0.3. Some of the results follow.

These sequences were tested against T1, Msn1 (UniProt P22148) (assay: PBM E-score (8-mer binding enrichment) (E-score (-0.5 to 0.5)); higher = stronger / more preferred TF binding; most listed sequences are background and not binding sites). Details: protein concentration: 200 nM; construct: GST-full length.
T1 sequence: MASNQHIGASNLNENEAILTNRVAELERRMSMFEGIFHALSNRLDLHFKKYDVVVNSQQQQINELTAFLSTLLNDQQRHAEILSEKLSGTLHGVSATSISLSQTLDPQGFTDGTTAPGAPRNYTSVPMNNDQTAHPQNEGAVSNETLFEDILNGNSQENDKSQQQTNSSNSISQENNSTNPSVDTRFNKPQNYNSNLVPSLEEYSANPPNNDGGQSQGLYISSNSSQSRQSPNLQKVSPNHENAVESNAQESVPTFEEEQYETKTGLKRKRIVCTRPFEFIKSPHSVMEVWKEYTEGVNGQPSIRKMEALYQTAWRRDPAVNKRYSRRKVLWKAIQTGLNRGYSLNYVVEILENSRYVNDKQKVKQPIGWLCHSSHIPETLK
Procedure, shortened: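 Masliner-normalised scans of fluorescent anti-GST signal were the basis for scoring. That signal came from GST-tagged yeast transcription factors applied at about 100-200 nM to double-stranded universal all-10-mer Agilent arrays on fresh or once-stripped slides. Each ungapped eight-base word, pooled with its reverse complement, received an E-score from the Universal PBM Analysis Suite.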

Sequence	PBM E-score
ATCGTGCA	0.125
AACTATTA	0.0997
CTGGTCCC	-0.218
CCAACGAG	-0.068
ACTTAATG	0.197
GTCGCTAA	0.133
ATATTATG	0.269
ATATGCAA	0.143
CATCCTCG	-0.144
AGCGTTCC	-0.0981
CTATTGAG	0.0896
GATTAATC	0.0343
CTACTCTA	0.125
ATTTGGTA	0.225
CGATTAAA	0.0941
GATCTGAC	0.0382
CCCGGGTC	-0.203
AGCGCGGC	-0.0748
CGGGTAAA	0.0524
AAGAAATG	0.185
CCTCACCA	-0.243
AGGGCTCG	-0.415
ACCGAGGG	-0.34
ATTTTTGA	0.0575
AAGTGGTA	0.0573

Sequence	PBM E-score
ACAAGCGC	0.105
CTGCCACC	-0.301
ACCGAATC	-0.0187
ACGCATCT	0.0951
GCATGTCC	0.459
CAGTCGCA	-0.207
CATGATAA	0.0379
CGGCTCAG	-0.0278
TGTAGACA	0.261
ACGCATAG	-0.171
ATCGTGTA	-0.0605
CTCGGAAC	0.265
CTGTTCTA	0.0719
CGGGGCCA	-0.157
CACACCTA	0.0593
ACGCATAT	0.157
CAATTATG	0.182
ACTGGCAT	-0.17
CCTCGTTC	-0.202
TATTACGA	0.125
AATCCCAA	-0.0751
ATCAAACA	0.116
ATATTGAT	0.131
TTTCGAAA	0.236
AGGTACTG	-0.0599

Sequence	PBM E-score
GGGACCAC	-0.255
AAATTAAC	0.0769
AGCCGATG	0.0723
ACGGAGAT	-0.151
ATTAGACA	0.295
CCCAGCGC	-0.0762
AATTGCAA	0.119
CATGCGCC	0.122
AACAGGTT	-0.0971
CAATCAGC	-0.122
AGTTCATG	0.146
AATTGATG	0.23
ATGACGTC	0.118
AAGGTCTC	-0.0547
AACCCCTG	-0.299
TTCGCAAA	0.167
ATCTAAAC	-0.019
GCAACGAA	0.106
AGGAGAAT	-0.0793
AGTTGATC	-0.143
ACTGCCAA	0.0843
AGAATATC	0.0546
ACGAACGA	0.0578
AGACATGG	0.221
GTTTGTGA	0.0517

Sequence	PBM E-score
AGACGTGA	0.207
AACTGAGC	-0.209
CCGATAGG	0.0659
ATCAATGG	-0.191
CGTCATGC	-0.176
CGAGATGC	0.0614
ATCCTTGA	-0.0979
AATTTCCG	0.19
ATATCAGG	0.0389
GGGACCCA	-0.139
ACCCTCAA	-0.169
ATTTCAAA	0.2
GGTGGGAA	-0.00011
CCTCCGCC	-0.221
AATAGCTG	-0.128
CACGCGCA	-0.113
CAACTCGA	-0.045
AGTAGGCG	-0.0529
CTATAGTA	0.0301
ACGACTGA	-0.0194
ATTGTCTC	0.378
CGCCATGA	0.0409
TACTGTAA	0.141
TGAAACCA	-0.0996
AGCCTTAT	-0.0506

Sequence	PBM E-score
GGGATCAA	-0.142
GACGGACA	0.386
CTCAAGCC	-0.119
CGGTGGAG	-0.254
GAGAGAGC	-0.221
CGGCCGAA	0.141
GAATGCGA	-0.0548
AGTAGCTA	-0.0446
CTATCCAG	0.00503
GTTTCGGA	0.159
GGTAGCAC	-0.289
AGCATACA	0.0845
ATTATTTC	0.146
AGGCCGTG	0.0755
AAGTAATT	0.166
CACAACGC	0.00979
CCTCCCAG	-0.285
GCCGTGGA	-0.212
AGAACAAC	0.0966
CGACACTA	0.142
CATTTATA	0.152
CTGGTTCA	-0.0582
AAGCCCTT	-0.186
AGGGGACG	-0.0829
CATACCCA	0.0872

Sequence	PBM E-score
AATAAGTA	0.0687
AGATTTGA	0.0853
GCGCCCTA	-0.259
AGTCCAAC	-0.0244
GGGGTTCA	-0.0583
ATCTTTCA	0.101
AGTCTTGC	-0.0197
AAAAAGTG	-0.0627
ACAAGCAC	0.0568
GTGTACGA	0.00375
GCCCAGAC	-0.205
ATAGTGAT	0.0639
CCTGAAAA	-0.0401
CCGGTCGC	-0.132
ACTCTTAC	0.158
CGGTCCGA	0.033
AAGTGTAG	0.0489
AATAGGAG	-0.243
GACGCAGC	0.0704
TAGAAAGA	-0.0909
AGAAGCGC	0.0875
AATTGAAG	-0.0362
ACTAGGAG	-0.201
AGTTAGGG	-0.123
CCCGTTCC	-0.229

Sequence	PBM E-score
AAACTTAA	0.205
ATTACGAC	0.186
GAGTCCCA	0.103
CCATTAGA	-0.188
ATCTAATG	-0.014
CACAAACA	0.138
CTACATTA	0.00564
AGAACACC	0.0348
ACACAAGA	0.217
GAGATTCC	-0.043
AATCTTCC	-0.111
ATGTTAGG	0.0629
AGAAGTCT	0.0496
CCGGACGA	0.199
CCTTCAGA	-0.0625
CACACGCG	0.0769
CTCGAATC	-0.213
CCCGGGCA	-0.0206
AGACCGGG	0.0102
ACGCAAGG	-0.0432
AGCGCTAG	-0.102
CTACCTCA	-0.257
CATGTCCG	0.436
CAGTAGGA	0.0016
AGGGTTGA	-0.108

Sequence	PBM E-score
AAATCCTT	-0.124
CACCGGTC	-0.221
TACCGGCA	0.00495
ACCGACTG	-0.0882
AACAAAAC	0.199
ATAACAGA	0.113
GAATCGGA	0.161
CTAGTCCA	0.139
CCCGACCG	-0.19
CGGTCTCC	-0.262
ACGATACG	-0.0335
CGAAGGGA	-0.0442
GGCAACGA	0.126
CAAAGTGA	0.108
CAACCCCA	-0.0389
CAGACACC	-0.0175
AGTTTGAT	0.232
GACACTTA	0.0257
GCTGCAGA	0.0331
AAACACTT	0.0611
ATGTCAAA	0.323
AACGCGAG	0.00199
TAGGATCA	-0.0325
ACACGCAA	-0.065
GCAACCCA	-0.0206

Sequence	PBM E-score
GCCCCGGA	-0.147
AGTGATCA	-0.0629
AGACGTAT	-0.00259
CCAAACCA	-0.0345
GGCGCACC	-0.23
AACTGCAG	-0.1
GTTATTAA	0.141
ACCCGTAC	-0.0147
ATAAAGGC	-0.0646
AGAACTCA	-0.0366
ACTGACCC	0.00925
AGTAGTGG	-0.0372
CGGGTCTA	-0.0147
AATTAGAA	-0.0868
ACATGTCA	0.358
AGGCGGGC	-0.253
CTTGAAGC	-0.0024
GAACTCAC	-0.116
ATAGGCGC	-0.0181
AGGAAAGC	-0.195
ACTAAAGT	-0.0264
CGACAATC	0.113
CCCCGTCA	-0.154
ATTCCAGC	-0.113
ACCCCTAG	-0.2

Sequence	PBM E-score
ACGTATAA	0.0167
CGGATGCA	0.0174
GAATTTGC	-0.0121
GGTGAGAC	0.0221
AGTCTTCC	0.0143
ATGTTCCC	0.13
AACTGCAA	0.0375
CATAAAGA	0.049
CTACGAAA	-0.0344
AGCACCAC	-0.295
AATACCGT	0.0665
CTCTGACA	0.205
GCCGTGCC	-0.152
TCAGTACA	0.319
CCCGGACC	-0.11
CCGCGGAA	0.0712
CACCGTGC	-0.0464
CCACGTTA	0.116
ATAGGACA	0.457
AAATGGGG	-0.211
ACTATCCA	0.0113
CTAGAGTA	-0.0714
AATTCGTC	0.185
ATCAATAG	0.038
CTCCCTCA	-0.223

Sequence	PBM E-score
AACCCTTC	-0.16
ATGGACCA	0.114
GTGTGTTA	-0.00116
ATCCGTGC	0.0735
AATCTAAT	0.0536
CGGCGGAA	-0.022
CGCGCAAC	-0.121
GCACTGAC	0.0945
CATAGGAA	-0.187
TATTTGGA	-0.0819
GGCTATGA	-0.0731
GAGGACCA	-0.184
CCACGAGA	-0.0481
AGTCCTCC	-0.101
CCCAGACA	0.199
ACACCAGT	-0.238
AGAACCCA	-0.128
CCCGATGC	-0.0486
GCCCTGGA	-0.205
ACACAAAC	0.0132
ATAAGGGA	-0.00215
ATCGGAGC	0.0147
AACGTAAT	0.157
AGGCTCGC	0.0181
CGAAGGAA	-0.0371

Sequence	PBM E-score
CCAGCCGC	-0.183
CCATTGAC	-0.112
AGATTAAA	0.309
ATTCTAAA	0.223
TCCGTTCA	-0.0111
AGAGTACG	-0.237
ATGTTAAT	0.111
GAGGGACA	0.447
CATGCTCG	-0.127
ATGGGACG	-0.188
CAAAGGGC	-0.0864
AAATGGCA	0.123
GTAGTATA	0.0405
AAGGCTTA	-0.00958
ACCGCATG	0.104
AGGCGCCG	0.076
AGTGTTAC	0.0186
ACGCTTGA	0.121
CTTTTAAA	0.0756
CCGCAGCA	-0.0553
ATTACCTG	-0.0939
AAGGCCGT	0.0285
ACGCCACC	-0.281
ATAATTTG	0.255
AAACAACA	0.125

Sequence	PBM E-score
CGATTATC	-0.109
TCTGAAGA	-0.0561
TCTCTGCA	-0.0804
AAGTTGTA	0.077
CCACATCG	-0.00737
CGGGGATA	-0.125
AAGGGTCG	-0.127
AGGCATTA	-0.199
CATCGACG	0.0449
GGCTGTAA	-0.0964
GTAGTGAC	0.143
CGCATCCA	-0.135
GCTCGATA	-0.00424
AGATCTCA	-0.0747
CGGGGTCC	-0.137
GAGAACGA	-0.0692
GCCGTTGA	0.011
GTTGTACA	0.249
GGCCATGA	-0.107
GCTTATGA	-0.0236
AGGTGTTA	-0.135
AGACATCA	0.2
ACTGTCAC	0.00673
CAGGGTTA	-0.13
CGACGTCC	0.0745

Sequence	PBM E-score
ATAGCTAC	-0.035
CCCGTTAA	-0.224
ACAATAAA	0.171
ACGACGCT	-0.134
GCTCGAGA	0.0552
AACATTGG	-0.147
GGTTTTTA	-0.0256
AGTTGGGC	-0.00283
GACCGAAA	0.181
CCGCGGGA	0.158
ACCGTAAG	0.0553
ACTAACTA	0.0816
ATGGGCTA	-0.00909
CCGGAGGA	-0.123
AAGTCTCG	0.0533
CAAAAGTA	0.254
TCTTTTAA	0.154
CTCTCCAA	-0.133
CCGTTGAG	-0.128
